{"source": "PubChem BioAssay AID504333", "about": "(National Center for Advancing Translational Sciences (NCATS), 2011)", "note": "The campaign covered roughly 360,000 compounds. About 16,000 (4.4%) were called active. The inconclusive results got no clear call from the source; some entries with a clear call stand among them for comparison. Calls come from the whole dose curve; as a rule, active = well fitted inhibition curve with a large enough effect; inconclusive = small, poorly fitted or top-dose-only effect; inactive = no such curve, though single readings can be large or run the other way. Potencies beside an inconclusive call are fits to weak or partial responses and may not hold up. Potency is the fitted concentration of half-maximal effect; tags give direction and shape of the fitted curve.", "data": [{"target": "Bromodomain adjacent to zinc finger domain protein 2B (Homo sapiens) (UniProt Q9UIF8)", "sequence (Q9UIF8 whole entry, looked up, the tested form may be a part)": "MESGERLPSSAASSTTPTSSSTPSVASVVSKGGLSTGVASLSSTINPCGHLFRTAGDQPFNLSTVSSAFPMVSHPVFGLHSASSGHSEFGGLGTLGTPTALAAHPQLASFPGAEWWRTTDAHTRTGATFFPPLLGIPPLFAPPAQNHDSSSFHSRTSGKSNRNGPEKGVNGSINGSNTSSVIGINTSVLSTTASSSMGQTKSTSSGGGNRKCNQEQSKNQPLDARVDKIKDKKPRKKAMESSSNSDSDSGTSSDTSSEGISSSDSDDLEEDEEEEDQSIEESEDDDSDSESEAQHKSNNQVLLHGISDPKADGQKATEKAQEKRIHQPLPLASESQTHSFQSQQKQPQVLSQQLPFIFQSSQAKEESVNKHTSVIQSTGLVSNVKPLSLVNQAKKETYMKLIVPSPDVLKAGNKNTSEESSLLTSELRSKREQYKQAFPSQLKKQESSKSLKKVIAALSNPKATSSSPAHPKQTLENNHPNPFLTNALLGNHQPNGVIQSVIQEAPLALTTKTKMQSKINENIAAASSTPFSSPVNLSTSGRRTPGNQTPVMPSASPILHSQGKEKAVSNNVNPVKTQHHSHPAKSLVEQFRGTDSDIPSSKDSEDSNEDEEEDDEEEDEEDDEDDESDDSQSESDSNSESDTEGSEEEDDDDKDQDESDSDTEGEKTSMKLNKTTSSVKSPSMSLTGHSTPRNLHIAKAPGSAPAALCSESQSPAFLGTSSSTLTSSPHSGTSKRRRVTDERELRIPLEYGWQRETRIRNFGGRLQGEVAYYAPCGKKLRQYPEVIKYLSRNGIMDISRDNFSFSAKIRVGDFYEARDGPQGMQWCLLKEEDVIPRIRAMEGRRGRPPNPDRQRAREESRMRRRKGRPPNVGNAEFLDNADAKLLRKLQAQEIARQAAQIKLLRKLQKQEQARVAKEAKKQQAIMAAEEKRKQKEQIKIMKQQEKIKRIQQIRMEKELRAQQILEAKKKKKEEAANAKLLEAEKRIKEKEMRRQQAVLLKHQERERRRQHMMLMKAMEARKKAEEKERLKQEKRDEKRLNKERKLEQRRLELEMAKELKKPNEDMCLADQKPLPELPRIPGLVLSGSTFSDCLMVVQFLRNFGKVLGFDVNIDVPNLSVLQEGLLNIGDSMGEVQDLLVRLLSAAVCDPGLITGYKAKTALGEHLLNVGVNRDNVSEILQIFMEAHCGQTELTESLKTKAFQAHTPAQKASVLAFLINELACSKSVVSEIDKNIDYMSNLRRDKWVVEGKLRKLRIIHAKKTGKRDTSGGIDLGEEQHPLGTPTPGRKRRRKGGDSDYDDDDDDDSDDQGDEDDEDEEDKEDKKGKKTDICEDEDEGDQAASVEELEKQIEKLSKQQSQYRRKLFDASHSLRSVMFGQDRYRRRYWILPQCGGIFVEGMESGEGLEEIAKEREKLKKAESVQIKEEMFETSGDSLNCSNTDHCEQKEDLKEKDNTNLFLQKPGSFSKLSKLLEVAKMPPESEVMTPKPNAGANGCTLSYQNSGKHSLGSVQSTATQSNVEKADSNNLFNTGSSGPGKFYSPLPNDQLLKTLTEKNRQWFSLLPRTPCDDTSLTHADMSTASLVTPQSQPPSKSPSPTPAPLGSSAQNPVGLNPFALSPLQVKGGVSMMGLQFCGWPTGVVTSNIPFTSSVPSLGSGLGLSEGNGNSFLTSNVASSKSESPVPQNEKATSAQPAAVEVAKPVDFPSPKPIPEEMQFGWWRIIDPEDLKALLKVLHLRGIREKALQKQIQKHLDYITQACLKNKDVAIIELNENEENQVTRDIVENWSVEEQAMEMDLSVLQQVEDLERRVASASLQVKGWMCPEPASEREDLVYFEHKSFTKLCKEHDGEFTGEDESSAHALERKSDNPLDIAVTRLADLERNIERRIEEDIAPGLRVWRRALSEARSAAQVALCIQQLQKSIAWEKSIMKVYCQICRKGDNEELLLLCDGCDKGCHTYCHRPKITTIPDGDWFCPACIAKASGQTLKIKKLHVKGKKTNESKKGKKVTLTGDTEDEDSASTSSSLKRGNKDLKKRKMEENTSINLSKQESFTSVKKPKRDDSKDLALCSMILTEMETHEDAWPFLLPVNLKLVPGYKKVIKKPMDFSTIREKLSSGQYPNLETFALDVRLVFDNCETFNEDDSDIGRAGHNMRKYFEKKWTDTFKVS", "assay": "qHTS Assay for Inhibitors of BAZ2B; note: nearly all actives have a fitted effect of over 60% in size", "conditions": "AlphaScreen BAZ2B-H3K14Ac peptide displacement; series mostly up to 114 µM", "from_the_text": "BAZ2B (bromodomain adjacent to zinc finger domain, 2B) belongs to a family of ubiquitously expressed bromodomain containing proteins, which biological function has not yet been elucidated. […] The interaction of BAZ2B with ISWI mediated by the BAZ1 motif has recently been described. […] The protocol is based on the AlphaScreen (PerkinElmer) displacement assay developed by NCGC [5], but uses the peptide ligand Biot-H3K14Ac, a high affinity binding partner for BAZ2B, in an AlphaScreen format. Although AlphaScreen has significant advantages with its utility in a variety of epigenetic target assays, the primary screening data provided in this deposition should be used with caution due to the prevalence of screening artifacts. The top compound concentration tested was 110uM in this assay, which increases number of actives and potential artifacts. An AlphaScreen counterscreen is highly recommended to be run against any putative actives to eliminate non-specific artifacts. Alternatively, one can use other AlphaScreen assays in PubChem to filter out promiscuous hits. Eberharter, A. et al. ACF1 improves the effectiveness of nucleosome mobilization by ISWI through PHD-histone contacts. The EMBO journal 23, 4029-4039. 2004. PMID: 15457208 [2] Jones, M.H. et al. A novel family of bromodomain genes. Genomics 63, 40-45. 2000. PMID: 10662543 [3] Yasgar, et al. Compound Management for Quantitative High-Throughput Screening. JALA. 2008 Apr;13(2):79-89. PMID: 18496600 [4] Inglese, et al. Quantitative high-throughput screening: a titration-based approach that efficiently identifies biological activities in large chemical libraries. Proc Natl Acad Sci. 1;103(31):11473-8. 2006. PMID: 16864780 [5] Quinn et al. A chemiluminescence-based method for identification of histone lysine methyltransferase inhibitors. Mol Biosyst 6(5): 782-8. 2010. PMID: 20567762 [6] Baell,Holloway. New substructure filters for removal of pan assay interference compounds (PAINS) from screening libraries and for their exclusion in bioassays. J Med Chem. 53(7):2719-40. 2010. PMID: 20131845 NIH Molecular Libraries Probe Production Network [MLPCN] NIH Chemical Genomics Center [NCGC] Structural Genomics Consortium (SGC) NIH Grant: 5U54 MH084681-02\nTo each well of a 1,536w plate, 2ul of BAZ2B protein (final 50nM) and 1ul biotinylated histone peptide acetylated at Lys14 [b-H3(5-23)K14Ac] (final 50nM) were added in 1x PBS buffer, pH 7.4, containing 0.01% Tween-20, using a nanoliter dispenser. Formation of a protein-peptide complex proceeded at room temperature for 30 min. A Kalypsys pin-tool was employed to transfer 23 nL of library compound solution in DMSO to each well. Following a 30 min incubation of the protein-peptide complex with compounds at room temperature, a mixture of 40 ug/mL each streptavidin-coated donor and nickel chelate acceptor AlphaScreen beads (final 10 ug/mL) were added in a 1ul dispense for a final volume of 4ul. A brief centrifugation followed (1000rpm, 1 min) and were then incubated protected from the light for 20 min at room temperature. Plates were read on an EnVision multilabel plate reader using the 1,536 plate HTS AlphaScreen aperture (excitation time 80 ms, measurement time 240 ms).", "values": [{"smiles": "O=C(N/N=C/c1c(O)n(-c2cccc3ccccc23)c(=O)[nH]c1=O)c1ccncc1", "Potency": "active: 79.4 µM"}, {"smiles": "CC(C)C[C@H]1C(=O)N2CCC[C@H]2[C@]2(O)O[C@](NC(=O)[C@@H]3C=C4c5cccc6[nH]c(Br)c(c56)CC4N(C)C3)(C(C)C)C(=O)N12", "note": "(some centres not stated)", "Potency": "inconclusive: 35.5 µM [inhibitor, partial curve]"}, {"smiles": "Cc1cc(Cl)ccc1OC(C)C(=O)O", "note": "(configuration not stated)", "Potency": "inconclusive: 100 µM [inhibitor, single point]"}, {"smiles": "CCC(C)N1C(=O)/C(=C\\c2cc3c4c(c2)CCCN4CCC3)C(=O)NC1=S", "note": "(configuration not stated)", "Potency": "inconclusive: 70.8 µM [inhibitor, partial curve]"}, {"smiles": "COc1ccccc1NC(=O)c1cc[n+](C)cc1", "Potency": "inconclusive: 89.1 µM [inhibitor, single point]"}, {"smiles": "Cc1ccc(C(=O)Nc2ccc(S(=O)(=O)N3CCC(c4nc5ccccc5s4)CC3)cc2)cc1", "Potency": "inconclusive: 89.1 µM [inhibitor, single point]"}, {"smiles": "Cc1cc(/C=C2\\C(=O)NC(=O)N(c3ccccc3F)C2=O)c(C)n1-c1cc(C(=O)O)cc(C(=O)O)c1", "Potency": "active: 28.2 µM"}, {"smiles": "O=c1[nH]c2ccccc2n1C1CCN(CCCC(c2ccc(F)cc2)c2ccc(F)cc2)CC1", "Potency": "inconclusive: 22.4 µM [inhibitor, full curve]"}, {"smiles": "Cc1nn(Cc2ccccc2)c(Cl)c1C(=O)OCC(=O)N1CCCC1", "Potency": "inconclusive: 89.1 µM [inhibitor, single point]"}, {"smiles": "COc1ccc(C2NCc3ccc4c(c3-n3cccc32)OCO4)cc1OC", "note": "(configuration not stated)", "Potency": "inconclusive: 31.6 µM [inhibitor, partial curve, poor fit]"}, {"smiles": "O=C(c1ccc(N2CCCCC2)c([N+](=O)[O-])c1)N1CCC2(CC1)OCCO2", "Potency": "inactive"}, {"smiles": "C[n+]1cccc(C(=O)N/N=C/c2ccc3c(c2)OCO3)c1", "Potency": "active: 50.1 µM"}, {"smiles": "COc1ccc(NC(=S)NC(NC(=O)CF)C(Cl)(Cl)Cl)cc1[N+](=O)[O-]", "note": "(configuration not stated)", "Potency": "inconclusive: 70.8 µM [inhibitor, single point]"}, {"smiles": "O=C(O)c1sccc1Oc1ccc(F)cc1[N+](=O)[O-]", "Potency": "inconclusive: 79.4 µM [inhibitor, single point]"}, {"smiles": "Cc1cc(=O)oc2cc3c(cc12)CCCN3", "Potency": "inactive"}, {"smiles": "CN1C(=O)/C(=C/C=C/c2ccco2)C(=O)NC1=S", "Potency": "active: 31.6 µM"}, {"smiles": "COc1ccc(CN2CCN(Cc3ccccc3OC)CC2)cc1", "Potency": "active: 25.1 µM"}, {"smiles": "C/C=C(\\C)CN1CCN(c2ccccc2F)CC1", "Potency": "inconclusive: 89.1 µM [inhibitor, single point]"}, {"smiles": "Cc1ccc(NC(=O)N(Cc2ccc3c(c2)OCO3)C2CCN(Cc3ccccc3)CC2)cc1F", "Potency": "inconclusive: 31.6 µM [inhibitor, partial curve]"}, {"smiles": "Cc1cc(NC(=O)c2cc(-c3cccc(Cl)c3)on2)nn1Cc1ccc(Cl)cc1", "Potency": "inconclusive: 31.6 µM [inhibitor, single point]"}, {"smiles": "CC1=CC(C)C(COC(N)=O)(COC(N)=O)C(C)C1", "note": "(configuration not stated)", "Potency": "inactive"}, {"smiles": "CN(C)CCN(C(=O)c1ccc(S(=O)(=O)N2CCc3ccccc32)cc1)c1nc2ccc(F)cc2s1", "Potency": "inconclusive: 35.5 µM [inhibitor, partial curve]"}, {"smiles": "O=c1[nH]c(=O)n(C2CCCCC2)c(O)c1C1=Nc2ccccc2SC(c2ccccc2)C1", "note": "(configuration not stated)", "Potency": "inconclusive: 89.1 µM [inhibitor, single point]"}, {"smiles": "C/C(=C/CCC(C)[C@H]1CC[C@@]2(C)C3=C(CC[C@]12C)[C@@]1(C)CCC(=O)C(C)(C)[C@@H]1CC3)C(=O)O", "note": "(some centres not stated)", "Potency": "inconclusive: 35.5 µM [inhibitor, partial curve]"}, {"smiles": "COc1ccc(CN2C(=O)NC(=O)/C(=C/c3ccoc3)C2=O)cc1", "Potency": "active: 50.1 µM"}, {"smiles": "O=C1C2CCCN2C(c2cccnc2)N1c1ccc(Cl)cc1", "note": "(configuration not stated)", "Potency": "inactive"}, {"smiles": "CCCCn1c(O)c(C(CC)=NC(C)c2ccccc2)c(=O)[nH]c1=O", "note": "(configuration not stated)", "Potency": "inconclusive: 89.1 µM [inhibitor, single point]"}, {"smiles": "CC(C)NC(C)C(=O)C12CC3CC(CC(C3)C1)C2", "note": "(configuration not stated)", "Potency": "inconclusive: 44.7 µM [inhibitor, partial curve]"}, {"smiles": "CCCCCSc1cc(OC)c(CCNC)cc1OC", "Potency": "inconclusive: 22.4 µM [inhibitor, partial curve]"}, {"smiles": "Fc1ccccc1N1CCN(Cc2c(F)cccc2F)CC1", "Potency": "active: 31.6 µM"}, {"smiles": "CCCCOc1ccc(CN2C(=O)C(=O)c3cc(C)ccc32)cc1OC", "Potency": "inconclusive: 2.82 µM [inhibitor, full curve, poor fit]"}, {"smiles": "Cc1ccccc1C(=O)NNC(=S)NC(=O)COc1ccccc1", "Potency": "inconclusive: 89.1 µM [inhibitor, single point]"}, {"smiles": "CCC(C)C1NC(=O)C(C(C)=O)=C1O", "note": "(configuration not stated)", "Potency": "active: 50.1 µM"}, {"smiles": "O=C1NC(=O)C(=Cc2ccc(SC3CCCCC3)o2)C(=O)N1", "Potency": "active: 44.7 µM"}, {"smiles": "Fc1cccc(F)c1CN1CCN(c2ccc(Cl)cc2)CC1", "Potency": "inactive"}, {"smiles": "COc1cc2c(cc1OC)C(c1c(O)n(CCc3ccccc3)c(=S)[nH]c1=O)NCC2", "note": "(configuration not stated)", "Potency": "inconclusive: 79.4 µM [inhibitor, single point]"}, {"smiles": "CSc1ncc(Cl)c(C(=O)O)n1", "note": "(tested in a mixture with another compound)", "Potency": "inconclusive: 89.1 µM [inhibitor, single point]"}, {"smiles": "FC(F)(F)c1ccc2c(c1)N(CCCN1CCN(CCCl)CC1)c1ccccc1S2", "Potency": "active: 39.8 µM"}, {"smiles": "Cn1ccnc1P(=S)(c1nccn1C)c1nccn1C", "Potency": "inconclusive: 89.1 µM [inhibitor, single point]"}, {"smiles": "C=C(COC(=O)CCC(=O)O)CC1CC(O)[C@]2(C)OC3CC4OC5C[C@]6(C)O[C@]7(C)CCC8OC9C[C@]%10(C)OC%11C(C)=CC(=O)OC%11CC%10OC9C[C@@H](C)C8OC7CC6O[C@]5(C)C/C=C\\C4OC3CC2O1", "note": "(some centres not stated)", "Potency": "inconclusive: 89.1 µM [inhibitor, single point]"}, {"smiles": "COc1ccc(N2C(=O)CS(=O)C(c3ccccc3)C2=O)cc1", "note": "(configuration not stated)", "Potency": "inconclusive: 39.8 µM [inhibitor, partial curve]"}, {"smiles": "C=CCc1c(C)nc(C)nc1N/N=C/c1ccc(N(C)C)cc1", "Potency": "inconclusive: 44.7 µM [inhibitor, partial curve]"}]}]}
